# Experimental data: PubChem BioAssay AID504332 (National Center for Advancing Translational Sciences (NCATS), 2011)
# “And” between values parts separate entries of the source, which are not always exact repeats. Equal values may be shown once. Among all 350,000 compounds or so, about 31,000 (8.9%) were called active. Inconclusive results, whose numbers are uncertain, are shown with a selection of clear calls. Calls come from the whole dose curve; as a rule, active = well fitted inhibition curve with a large enough effect; inconclusive = small, poorly fitted or top-dose-only effect; inactive = no such curve, though single readings can be large or run the other way. A potency beside an inconclusive call is a rough fit, not a confirmed value. More than one record can exist for a structure, and the calls need not agree.
# Biological target: Histone-lysine N-methyltransferase EHMT2 (Homo sapiens) (UniProt Q96KQ7)
# Experiment: qHTS Assay for Inhibitors of Histone Lysine Methyltransferase G9a; note: nearly all actives have a fitted effect of over 75% in size
# Conditions: G9a H3K9 monomethylation, AlphaScreen, 2 h; activity, negative = inhibition: at 59 µM (top of the series) unless noted
# Outline: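 Chemiluminescent proximity detection of H3K9 monomethylation, read after 10 min bead incubation in the dark. Reaction: 20 nM G9a, 500 nM biotin-H3K9 peptide, 20 uM SAM cofactor, 2 h, room temperature, following 15 min enzyme-compound preincubation.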
# % is set by controls: 0 for no effect and ±100 for the full control effect; potency is the fitted concentration of half-maximal effect; tags give direction and shape of the fitted curve.
# Sequence of UniProt Q96KQ7 (Q96KQ7 whole entry, looked up): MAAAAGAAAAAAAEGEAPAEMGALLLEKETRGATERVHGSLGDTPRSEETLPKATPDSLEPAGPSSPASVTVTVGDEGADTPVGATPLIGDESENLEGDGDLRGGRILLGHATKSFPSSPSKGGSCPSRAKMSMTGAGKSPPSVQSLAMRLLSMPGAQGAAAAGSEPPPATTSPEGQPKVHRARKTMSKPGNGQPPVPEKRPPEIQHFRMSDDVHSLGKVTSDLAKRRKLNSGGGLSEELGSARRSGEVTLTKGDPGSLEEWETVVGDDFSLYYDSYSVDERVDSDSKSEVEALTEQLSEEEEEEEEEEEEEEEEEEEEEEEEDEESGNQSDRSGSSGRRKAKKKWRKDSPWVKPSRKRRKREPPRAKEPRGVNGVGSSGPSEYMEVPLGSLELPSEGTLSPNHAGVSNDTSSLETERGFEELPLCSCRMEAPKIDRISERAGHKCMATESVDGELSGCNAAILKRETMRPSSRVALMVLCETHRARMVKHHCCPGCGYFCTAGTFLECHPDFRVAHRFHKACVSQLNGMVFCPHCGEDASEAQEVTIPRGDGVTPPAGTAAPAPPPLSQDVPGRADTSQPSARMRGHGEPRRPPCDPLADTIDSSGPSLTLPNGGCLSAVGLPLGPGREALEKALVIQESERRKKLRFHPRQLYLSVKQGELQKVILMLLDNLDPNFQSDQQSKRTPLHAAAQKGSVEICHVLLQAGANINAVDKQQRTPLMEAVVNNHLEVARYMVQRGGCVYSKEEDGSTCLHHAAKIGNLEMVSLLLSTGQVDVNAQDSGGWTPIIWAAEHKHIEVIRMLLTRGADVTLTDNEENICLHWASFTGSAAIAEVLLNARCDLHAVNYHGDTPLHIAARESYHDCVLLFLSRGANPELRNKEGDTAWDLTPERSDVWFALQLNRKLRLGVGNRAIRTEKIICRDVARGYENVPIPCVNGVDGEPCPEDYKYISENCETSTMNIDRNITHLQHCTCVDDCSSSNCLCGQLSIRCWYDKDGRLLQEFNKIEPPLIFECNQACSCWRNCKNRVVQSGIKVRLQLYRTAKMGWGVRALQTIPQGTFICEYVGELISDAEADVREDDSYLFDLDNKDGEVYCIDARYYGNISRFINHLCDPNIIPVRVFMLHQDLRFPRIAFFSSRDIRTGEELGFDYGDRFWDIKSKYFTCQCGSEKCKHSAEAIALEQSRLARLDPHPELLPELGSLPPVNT
Compound,Potency,"activity, negative = inhibition"
COC(=O)c1nc(NC2=NCCCCC2)n[nH]1,"inconclusive: 39.8 µM [inhibitor, single point]",
Cc1ccc(C2NC(=O)c3c(sc4c3CCN(C)C4)N2)s1 (centres undefined),"inconclusive: 39.8 µM [inhibitor, single point]",
O=C(CN1CCCc2ccccc21)N1CCc2ccccc21,"inconclusive: 50.1 µM [inhibitor, partial curve, poor fit]",
COc1ccc(NC2c3ccccc3C(=O)N2c2cccnc2)cc1 (centres undefined),"inconclusive: 56.2 µM [inhibitor, partial curve, poor fit]",
COc1ccc(CNC(=O)c2ccc(-c3nc(CS(=O)c4ccc(C)cc4)c(C)o3)cc2)cc1 (centres undefined),"inconclusive: 7.94 µM [inhibitor, full curve, poor fit]",
CCCCC(=O)NC(c1ccc(N(C)C)cc1)c1ccc2cccnc2c1O (centres undefined),active: 39.8 µM,
Clc1ccccc1-c1nnc2sc(C3COc4ccccc4O3)nn12 (centres undefined),,inconclusive: -120% [inhibitor] [at 12.7 µM]
N#Cc1ccc(OCC(=O)N2CCN(c3ccc(C(F)(F)F)cn3)CC2)cc1,"inconclusive: 2.51 µM [inhibitor, partial curve, poor fit]",
CC(=O)N(C)C1=C(O)c2ccccc2C(=O)C1=O,active: 79.4 µM,
CC(=O)Nc1ccc(N2C(=O)c3cccc4c(O)ccc(c34)C2=O)cc1,"inconclusive: 79.4 µM [inhibitor, single point]",
CC1Cc2nc(SCC(=O)Nc3nccs3)n(C)c(=O)c2S1 (centres undefined),"inconclusive: 70.8 µM [inhibitor, single point]",
Cc1cccc(C(=O)Nc2ccc(C(=O)/C=C/c3cccnc3)cc2)c1,"inconclusive: 1.78 µM [inhibitor, full curve]",
Cc1ccc2nc(-c3c[nH]c4ccccc34)c(Nc3ccc(F)cc3)n2c1,"inconclusive: 10 µM [inhibitor, partial curve]",
Cc1cc([N+](=O)[O-])nn1CCCC(=O)Nc1sc2c(c1C(N)=O)CCCC2,active: 1.78 µM,
COc1cccc(/C=C/C(=O)OCC(=O)N2CCCc3ccccc32)c1,inactive,
Cc1ccc(C)c(NC(=O)CN(C)C(=O)c2cc([N+](=O)[O-])ccc2N2CCOCC2)c1,,inactive: 19.3% [at 2.33 µM]
COc1ccc(C(=O)Nc2ccccc2N2CCOCC2)cc1[N+](=O)[O-],inactive,
CC1(C)CC(=O)C=C(c2ccc3ncccc3c2)C1,,inactive: 6.31% [at 2.33 µM]
COc1ccccc1CNC(=O)c1ccc(CSc2nc3ccncc3n2Cc2cccc(F)c2)cc1,"inconclusive: 7.94 µM [inhibitor, partial curve, poor fit]",
CN(Cc1cccc(F)c1)C(=O)c1cc(=O)[nH]c2ccccc12,"inconclusive: 89.1 µM [inhibitor, single point]",
CCCn1c(SCC(=O)c2ccc3c(c2)OCCO3)nnc1-c1ccco1,"inconclusive: 44.7 µM [inhibitor, partial curve, poor fit]",
Cc1ccc(S(=O)(=O)NCCC(=O)NNC(=O)COc2ccc(Br)cc2)cc1C,inactive,
Nc1nc(N2CCN(C(=O)c3ccco3)CC2)nc2ccccc12,"inconclusive: 39.8 µM [inhibitor, single point]",

Compound,Potency,"activity, negative = inhibition"
CN(Cc1nc(-c2cccnc2)no1)S(=O)(=O)c1ccc(Br)cc1,"inconclusive: 56.2 µM [inhibitor, partial curve, poor fit]",
O=c1c([N+](=O)[O-])cc(C(F)(F)F)cn1Cc1cccc(Cl)c1,inactive,
Cc1ccc(N2CCN(c3cc(C)nc4nc(C)nn34)CC2)c(C)c1,"inconclusive: 89.1 µM [inhibitor, single point]",
O=[N+]([O-])c1cncc([N+](=O)[O-])c1Nc1ccccc1Cl,"inconclusive: 50.1 µM [inhibitor, partial curve]",
CN(C)S(=O)(=O)c1ccc(Cl)c(C(=O)NCCNC(=O)c2cc(S(=O)(=O)N(C)C)ccc2Cl)c1,"inconclusive: 89.1 µM [inhibitor, partial curve, poor fit]",
FC(F)(F)c1ccc(/C=N/n2c(C3CCCCC3)n[nH]c2=S)cc1,active: 50.1 µM,
CCc1ccc(N2CC(C(=O)OCc3nc4ccsc4c(=O)[nH]3)CC2=O)cc1 (centres undefined),,inactive: 3.14% [at 12.7 µM]
O=C(Nc1ccc(F)cc1)Nc1csc2ccccc12,"inconclusive: 89.1 µM [inhibitor, partial curve, poor fit]",
Cc1ccc(C(C)C)cc1OCC(=O)Nc1ccccc1N1CCCC1,active: 79.4 µM,
CCc1ccc(CNCCNCC(C)O)cc1 (centres undefined),,inconclusive: -77.3% [inhibitor]
CC(=O)NNc1nc(-c2ccc(NC(C)=O)cc2)cs1,"inconclusive: 25.1 µM [inhibitor, single point]",
CC1=C(C(=O)Nc2ccccc2C)C2(CCCCC2)C(C(N)=O)C(=S)N1 (centres undefined),"inconclusive: 39.8 µM [inhibitor, single point]",
CC(C)CN(C(=O)CCCc1nc2ccccc2c(=O)[nH]1)c1c(N)n(Cc2ccccc2)c(=O)[nH]c1=O,active: 39.8 µM,
COCCn1c(CCC(=O)O)ccc1-c1cccs1,active: 50.1 µM,
CC(=O)Nc1cn(C(C)=O)c(C)n1,"inconclusive: 10 µM [inhibitor, partial curve, poor fit]",
COc1cccc(CN(C)C(=O)c2cccc(S(=O)(=O)N3CCN(c4ccc(F)cc4)CC3)c2)c1OC,"inconclusive: 89.1 µM [inhibitor, partial curve, poor fit]",
O=C(CNC(=O)c1ccccc1F)OCCOc1cccc(Cl)c1,"inconclusive: 79.4 µM [inhibitor, single point]",
COc1cc(N2Cc3ccccc3C2)ccc1C=O,active: 31.6 µM,
CC1CN(CCC(=O)Nc2ccc3c(c2)CCC3)CC(C)O1 (centres undefined),"inconclusive: 5.62 µM [inhibitor, single point]",
COC(=O)c1nc2ccc(N3CCOCC3)cc2c(C)c1C(=O)OC,"inconclusive: 4.47 µM [inhibitor, full curve]",
Nc1ccccc1Sc1ccc(C(=O)c2ccccc2C(=O)O)cc1[N+](=O)[O-],active: 20 µM,
NC(=O)c1nn(-c2ccc(Cl)cc2Cl)c(=O)cc1O,inactive,
Nc1cccc(-c2csc(-n3ncc(C(=O)O)c3C(F)(F)F)n2)c1,"inconclusive: 56.2 µM [inhibitor, partial curve, poor fit]",

Compound,Potency,"activity, negative = inhibition"
COc1cc([N+](=O)[O-])ccc1N,"inconclusive: 79.4 µM [inhibitor, single point]",
Cc1cc(C)n(C2CC(=O)N(c3cccc(Cl)c3)C2=O)n1 (centres undefined),"inconclusive: 35.5 µM [inhibitor, single point]",
CCCCn1c(SCC(=O)NCC2CCCO2)nc2ccc(N3CCOCC3)cc2c1=O (centres undefined),"inconclusive: 3.16 µM [inhibitor, single point]",
O=C(CN1CCOc2ccccc21)NCc1ccccc1,"inconclusive: 79.4 µM [inhibitor, single point]",
CCc1cc2cccc(C)c2nc1SCC(=O)N1CCN(C(=O)c2ccco2)CC1,"inconclusive: 89.1 µM [inhibitor, partial curve, poor fit]",
Cc1cc(C)c(/C=C2\C(=O)Nc3ccccc32)[nH]1,active: 4.47 µM and active: 16.8 µM,
CC(C)(NC(=O)c1ccccc1)c1nc2ccccc2s1,,inactive: -3.62% [at 2.33 µM]
O=C(CSc1nc(=O)[nH]c2c1CCC2)NCc1ccc(F)cc1,inactive,
O=C(NCc1ccc2[nH]c3c(c2c1)CCCC3)c1ccc(S(=O)(=O)N2CCOCC2)cc1,active: 39.8 µM,
O=C(c1ccc(F)cc1)C1CCN(C(=O)c2ccncc2)CC1,"inconclusive: 56.2 µM [inhibitor, partial curve]",
N=c1c(C(=O)NCCN2CCOCC2)cc2c(=O)n3ccccc3nc2n1CCCN1CCOCC1,"inconclusive: 70.8 µM [inhibitor, partial curve]",
Brc1cccc(-c2nnc3sc(CNCc4ccco4)cn23)c1,active: 44.7 µM,
Cc1cc(C)n(Cc2ccc(C(=O)Nc3ccc(Br)cc3C)o2)n1,inactive,
CCCCCC(=O)NC(NC(=S)Nc1ccc(S(N)(=O)=O)cc1)C(Cl)(Cl)Cl (centres undefined),"inconclusive: 20 µM [inhibitor, single point]",
O=C(OCc1ccccn1)C1CCN(C(=O)c2ccc(Cl)cc2)CC1,inactive,
Cc1ccc(S(=O)(=O)n2nc(C)cc2N)cc1,inactive,
O=C(O)/C(=C\c1cccc(F)c1)c1ccc(S(=O)(=O)N2CCCC2)s1,"inconclusive: 1.41 µM [inhibitor, single point]",
N[C@H](C(=O)O)c1cc(O)cc(O)c1,inactive,
Cc1ccc(S(=O)(=O)n2[nH]c(=O)cc2NC(=O)c2cccs2)cc1,,inconclusive: -70% [inhibitor]
CCOC(=O)COn1c(=O)c(-c2ccc(OC)c(OC)c2)[n+]([O-])c2ccccc21,active: 22.4 µM,
N#Cc1ccc(C(=O)NCC(c2ccco2)N2CCCC2)cc1 (centres undefined),"inconclusive: 89.1 µM [inhibitor, partial curve, poor fit]",
CC(OC(=O)Cc1c[nH]c2ccccc12)C(=O)NC1(C#N)CCCCC1 (centres undefined),"inconclusive: 39.8 µM [inhibitor, partial curve, poor fit]",
COc1ccc(C(=O)Nc2ccc(NC(=O)C(C)C)nc2)cc1,"inconclusive: 100 µM [inhibitor, single point]",
